Test results published in PubChem BioAssay AID624418 (National Center for Advancing Translational Sciences (NCATS), 2012).
About 530 (0.13%) of roughly 410,000 compounds were called active. The shares of active, inactive and inconclusive entries below differ from those in the screen. Calls come from the whole dose curve; as a rule, active = well fitted inhibition curve with a large enough effect; inconclusive = small, poorly fitted or top-dose-only effect, or another doubt; inactive = no such curve, though single readings can be large or run the other way. A potency beside an inconclusive call is a rough fit, not a confirmed value.

assay: qHTS of GLP-1 Receptor Inverse Agonists: Cytotox Screen; details: HEK293 cAMP-luciferase reporter cells, luminescence, 24 h; activity change, negative = inhibition: at 38.3 µM (top of the series) unless noted
Outline: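 A 23 nL compound transfer followed 12 hours of cell culture at 37 deg C; exposure then lasted 24 hr. Luciferase assay detection reagent was dispensed and plates read for luminescence after a 12 min room-temperature wait.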
% is set by controls: 0 for no effect and ±100 for the full control effect; potency is the fitted concentration of half-maximal effect.

Row | SMILES | Potency | activity change, negative = inhibition
1 | COc1ccccc1N(CC(=O)Nc1ccccc1C(=O)NCC(C)C)S(C)(=O)=O | inconclusive: 7.94 µM [inhibitor, single point] | –
2 | CCOC(=O)CCC(=O)N(CCN(C(=O)CCC(=O)OCC)c1ccccc1)c1ccccc1 | inconclusive: 0.501 µM [inhibitor, full curve, poor fit] | –
3 | CCOC(=O)c1c(CSc2ccc(CC)cc2)oc2ccc(O)c(CN(C)C)c12 | inconclusive: 22.4 µM [inhibitor, single point] | –
4 | CCOC(=O)c1oc2ccccc2c1NC(=O)COc1cccc(OC)c1 | inactive | –
5 | COc1ccc(-c2cnnc(N/N=C/c3ccc(OC)c(OC)c3)n2)cc1 | – | inconclusive: -108% [inhibitor] [at 1.53 µM]
6 | Cc1cc2oc(=O)c(CC(=O)NCCCN(C)C)c(C)c2c2occ(C(C)(C)C)c12 | inconclusive: 7.08 µM [inhibitor, partial curve, poor fit] | –
7 | COc1ccc(N(CC(=O)NC2CC3CCC2C3)S(=O)(=O)c2ccc(C)cc2)cc1OC (stereo not given) | inactive | –
8 | Cc1ccc(-c2cc(C(=O)N3CCN(S(=O)(=O)c4ccc(Br)s4)CC3)[nH]n2)cc1C | inactive | –
9 | C=C(NC(=O)C(=C)NC(=O)c1csc(C2=NC3c4csc(n4)C4NC(=O)c5csc(n5)C(C(C)(O)C(C)O)NC(=O)C5CSC(=N5)/C(=C/C)NC(=O)C(C(C)O)NC(=O)c5csc(n5)C3(CC2)NC(=O)C(C)NC(=O)C(=C)NC(=O)C(=C)NC(=O)C(C(C)C)NC2C=Cc3c(C(C)O)cc(nc3C2O)C(=O)OC4C)n1)C(N)=O (stereo not given) | inconclusive: 3.98 µM [inhibitor, full curve, poor fit] | –
10 | COc1ccc(-c2cnc3c(NC=O)cc(-c4cccc(NS(C)(=O)=O)c4)cn23)cc1OC | inconclusive: 28.2 µM [inhibitor, single point] | –
11 | COc1ccc(N(/N=C2\Sc3ccccc3C2=O)C(C)=O)cc1 | inactive | –
12 | O=C(c1ccco1)N1CCN=C1SCc1cccc(F)c1 | inconclusive: 12.6 µM [inhibitor, single point] | –
13 | O=C(Nc1ccc(O)cc1C(=O)O)c1ccc2c(c1)C(=O)N(Cc1ccco1)C2=O | inactive | –
14 | CCN1CCN(C(=O)c2ccc3c(c2)N(Cc2c(F)cccc2Cl)C(=O)c2ccccc2S3)CC1 | inactive | –
15 | COc1ccc(C2CC(=O)c3cnn(-c4nc(C)cc(C)n4)c3C2)cc1 (stereo not given) | inconclusive: 5.01 µM [inhibitor, partial curve, poor fit] | –
16 | COc1ccccc1NC(=O)C(=O)c1cn(CC(=O)N2CCCC2)c2ccccc12 | inconclusive: 28.2 µM [inhibitor, single point] | –
17 | Cc1ccc(NCC(=O)N=Nc2c(O)[nH]c3ccc([N+](=O)[O-])cc23)cc1 | inconclusive: 14.1 µM [inhibitor, single point] | –
18 | Cc1[nH]c2ccc(C(=O)OC(C)C(=O)NCc3ccccc3)cc2c1C (stereo not given) | inconclusive: 4.47 µM [inhibitor, full curve] | –
19 | COC(=O)c1cccc(-n2sc3ccccc3c2=O)c1 | inconclusive: 28.2 µM [inhibitor, single point] | –
20 | COc1ccc(CCCC(=O)N/N=C/c2cccc(OC)c2O)cc1C | inconclusive: 2.24 µM [inhibitor, full curve, poor fit] | –

Row | SMILES | Potency | activity change, negative = inhibition
21 | CC(=O)C1=C(C)Nc2ncnn2C1c1ccc(C)cc1 (stereo not given) | inconclusive: 3.16 µM [inhibitor, partial curve, poor fit] | –
22 | COc1cc2nc(N3CCN(c4cc(C)ccc4C)CC3)nc(N)c2cc1OC | inconclusive: 20 µM [inhibitor, partial curve, poor fit] | –
23 | CCCCNC(=S)Nc1ccc(Cl)cc1 | inconclusive: 28.2 µM [inhibitor, single point] | –
24 | COc1ccc(-c2c[n+]3c4n2CCCCC4=C(c2ccc(Br)cc2)C3)cc1 | inactive | –
25 | O=C1CN(C(=O)c2ccc(S(=O)(=O)N3CCCCC3)cc2)C(c2ccc(F)cc2)c2cc(Cl)ccc2N1 (stereo not given) | inactive | –
26 | COc1ccc(C2=C(C)C(=O)N(Cc3ccc(C(=O)Nc4ccc(F)cc4C)cc3)S2(=O)=O)cc1 | inconclusive: 10 µM [inhibitor, single point] | –
27 | CCO[C@@H]1OC(C(N)=O)=C[C@H](C(C)(C)C)[C@H]1CCCO | inactive | –
28 | O=C(NNc1ccccc1)C(=O)NNS(=O)(=O)c1ccc([N+](=O)[O-])cc1 | inconclusive: 10 µM [inhibitor, partial curve] | –
29 | Nc1c(/C=C2/C=CC(=O)C(O)=C2)c(=O)nc2sc(CC(=O)N3CCOCC3)nn12 | inconclusive: 0.501 µM [inhibitor, full curve, poor fit] | –
30 | COc1cc(C2=NOC(C(=O)NCc3ccc(F)cc3)C2)cc(OC)c1OC (stereo not given) | inconclusive: 1.26 µM [inhibitor, full curve] | –
31 | CCOC(=O)c1oc2nc3c(cc2c1N)CCCC3 | inactive | –
32 | O=C(NC1CCCCC1)C(c1cccnc1)N(C(=O)CCl)c1ccc(F)cc1 (stereo not given) | inconclusive: 12.6 µM [inhibitor, single point] | –
33 | COc1ccc(Oc2c(Cl)cnn(-c3ccc(C)cc3)c2=O)cc1 | inconclusive: 28.2 µM [inhibitor, single point] | –
34 | Cc1ccc(C(C)C)c(OCc2ccc(C(=O)N/N=C/c3ccc(O)c(O)c3)cc2)c1 | inconclusive: 11.2 µM [inhibitor, single point] | –
35 | Cc1cc2cc(CNC(=O)c3ccc(S(=O)(=O)N4CCCCC4)cc3)ccc2n1C | inconclusive: 10 µM [inhibitor, single point] | –
36 | CC(Oc1ccc(-c2ccccc2)cc1)C(=O)N/N=C/c1cccnc1 (stereo not given) | inconclusive: 28.2 µM [inhibitor, single point] | –
37 | CC(C)Nc1ccc(Nc2ccnc3cc4ccccc4cc23)cc1 | active: 4.47 µM | –
38 | C=CC(=O)N1C/C(=C/c2ccc(Cl)cc2)C(=O)/C(=C\c2ccc(Cl)cc2)C1 | active: 3.16 µM | –
39 | CCC1CCc2sc(C(=O)N(C)CC(=O)Nc3cccc(OC)c3)cc2C1 (stereo not given) | inactive | –
40 | CCOc1ccc(-n2cnnn2)cc1S(=O)(=O)Nc1c(C)cccc1C | inactive | –
